Structures can show the parent of a compound that is named as a salt. This is one part of the list. Many values rest on one well or one pass, so single values are uncertain.
Assays:
Test in all cases: proliferation Z-score within cell line (SRB, relative to all inhibitors screened on that line); triple-negative breast cancer lines and a kinase inhibitor library; SRB is the sulforhodamine B protein stain; higher = less growth inhibition (more resistant)
Conditions in all cases: concentration: 1 µM; 4 days
Bt20 = system: Bt20
Bt549 = system: Bt549
HCC1143 = system: HCC1143
HCC1806 = system: HCC1806
HCC1937 = system: HCC1937
HCC38 = system: HCC38
HCC70 = system: HCC70
Hs578T = system: Hs578T
MDA-MB-231 = system: MDA-MB-231
MDA-MB-435s = system: MDA-MB-435s
MDA-MB-436 = system: MDA-MB-436
MDA-MB-453 = system: MDA-MB-453
MDA-MB-468 = system: MDA-MB-468
SKBR7 = system: SKBR7
SUM1315MO2 = system: SUM1315MO2
SUM149PT = system: SUM149PT
SUM159PT = system: SUM159PT
SUM185PE = system: SUM185PE
SUM229PE = system: SUM229PE
SUM52PE = system: SUM52PE
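Also: Single-dose primary screen of a 378-member kinase inhibitor library in 96-well plates, with growth read as absorbance of protein-bound SRB dye after TCA fixation.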

SMILES	proliferation Z-score within cell line (Bt20)	proliferation Z-score within cell line (Bt549)	proliferation Z-score within cell line (HCC1143)	proliferation Z-score within cell line (HCC1806)	proliferation Z-score within cell line (HCC1937)	proliferation Z-score within cell line (HCC38)	proliferation Z-score within cell line (HCC70)	proliferation Z-score within cell line (Hs578T)	proliferation Z-score within cell line (MDA-MB-231)	proliferation Z-score within cell line (MDA-MB-435s)	proliferation Z-score within cell line (MDA-MB-436)	proliferation Z-score within cell line (MDA-MB-453)	proliferation Z-score within cell line (MDA-MB-468)	proliferation Z-score within cell line (SKBR7)	proliferation Z-score within cell line (SUM1315MO2)	proliferation Z-score within cell line (SUM149PT)	proliferation Z-score within cell line (SUM159PT)	proliferation Z-score within cell line (SUM185PE)	proliferation Z-score within cell line (SUM229PE)	proliferation Z-score within cell line (SUM52PE)
Oc1ccc(Nc2nc(-c3ccc(Cl)cc3)cs2)cc1	0.694	0.519	0.718	0.722	0.529	0.481	0.491	0.568	0.6	0.592	0.609	0.393	0.844	0.977	1.08	0.739	0.487	1.04	1.39	1.23
CC(C)(C)c1cnc(CSc2cnc(NC(=O)C3CCNCC3)s2)o1	-3.18	-3.92	0.525	-2.86	0.219	-4.24	0.735	-3.85	-2.38	-2.67	0.934	-2.27	-2.01	-2.99	-3.01	-3.15	0.504	-1.63	-2.99	-1.29
Cc1nc(NC(=O)N2CCC[C@H]2C(N)=O)sc1-c1ccnc(C(C)(C)C(F)(F)F)c1	-0.258	0.542	0.0542	-0.255	0.143	0.641	0.713	0.361	0.867	0.267	0.404	-1.21	0.803	0.597	0.591	0.477	-0.141	-1.27	-0.0757	0.664
CO[C@@H](C(=O)N1Cc2[nH]nc(NC(=O)c3ccc(N4CCN(C)CC4)cc3)c2C1)c1ccccc1	-0.892	-1.47	0.68	-0.0957	0.111	-1.14	0.622	-0.618	-1.47	-0.548	0.937	-1.05	-1.39	-1.08	-1.97	-0.55	0.577	-1.94	-0.1	-1.41
COc1cc2c(N3CCN(C(=O)Nc4ccc(OC(C)C)cc4)CC3)ncnc2cc1OCCCN1CCCCC1 [Tandutinib (MLN518)]	1.48	0.379	0.652	0.263	0.685	0.462	0.6	0.471	0.935	1.15	0.7	0.785	1.3	0.767	0.871	1.05	0.518	1.11	0.585	1.58
CN(C[C@@H]1COCCO1)S(=O)(=O)Nc1ccc2ccc3ncc(-c4cnn(C)c4)cc3c(=O)c2c1	0.915	0.812	0.734	0.907	0.64	0.632	0.8	0.668	0.871	0.631	0.829	1.02	0.724	1.03	-0.67	0.123	0.718	-1.1	0.766	-1.22
CCN1C(=CC(C)=O)Sc2ccc(OC)cc21	0.546	0.045	0.787	-0.099	0.386	0.424	0.545	0.359	0.676	0.483	-0.503	-0.369	0.695	0.874	0.235	0.635	0.44	0.596	0.152	1.01
Cn1cnc(-c2cc3nccc(Oc4ccc(NC(=S)NC(=O)Cc5ccccc5)cc4F)c3s2)c1	0.774	0.575	1.02	1.12	1.23	0.517	0.71	0.574	0.818	0.76	0.749	0.898	1.01	1.02	0.644	1.24	0.801	0.655	0.372	0.219
CCN(CC)CCNC(=O)c1c(C)[nH]c(/C=C2\C(=O)Nc3ccc(F)cc32)c1C [Sunitinib Malate]	1.14	0.969	0.787	-0.103	0.643	0.198	0.804	0.487	0.338	0.224	0.685	0.658	1.1	0.325	0.155	0.534	0.596	-0.463	0.681	0.189
COc1cc2ncnc(Oc3cccc(NC(=O)Nc4cc(C(C)(C)C(F)(F)F)on4)c3)c2cc1OC	0.561	0.382	0.72	-0.323	0.745	0.311	0.56	-0.0107	-0.752	-1.15	0.512	-0.681	0.793	0.594	0.562	0.742	0.335	0.424	0.726	-0.316
Nc1ncnc2c1c(-c1cccc(OCc3ccccc3)c1)cn2C1CC(CN2CCCC2)C1 (stereo not given)	1.05	0.524	-2.15	0.329	-2.74	0.487	-1.99	0.78	0.191	0.163	-2.5	0.986	1.08	-0.0353	1.23	-0.0125	-2.82	1.34	-0.52	1.36
O=C(/C=C/c1ccc2ccccc2n1)c1ccncc1	0.432	0.444	0.71	0.645	0.435	0.533	0.414	0.572	0.516	0.748	0.22	0.097	0.534	0.146	0.414	0.802	0.484	0.259	0.737	0.911
Cc1ccc(Nc2nccc(N(C)c3ccc4c(C)n(C)nc4c3)n2)cc1S(N)(=O)=O	-0.206	0.545	0.887	0.933	0.915	0.595	0.907	0.556	0.218	0.697	0.877	1.15	0.219	0.964	-1.27	0.263	0.61	-0.952	0.98	-1.4
O=C(Nc1cccc(Nc2ncc(Br)c(NCCc3cnc[nH]3)n2)c1)N1CCCC1	0.273	-0.591	-0.851	0.22	-0.893	-0.454	0.641	0.402	-0.728	0.221	0.448	-0.902	-1.64	0.409	-0.922	0.392	0.594	-1.2	0.341	-1.37
Cc1c(NC(=O)OC[C@@H]2COCCN2)cn2ncnc(Nc3ccc4c(cnn4Cc4cccc(F)c4)c3)c12	0.101	0.529	-1.84	-1.76	-1.68	0.512	-1.04	0.509	0.998	0.814	-1.75	-0.675	-0.614	-1.07	0.511	-0.0899	-2.55	0.709	-0.215	0.976
COc1cc2c(Nc3ccc(NC(=O)c4ccccc4)cc3)ncnc2cc1OCCCN1CCOCC1	0.526	0.279	0.939	0.714	0.602	0.491	0.859	0.581	-0.388	0.389	0.3	0.592	0.218	1.13	0.691	0.653	0.529	0.437	0.226	0.548
CC(C)c1cnn2c(NCc3ccccc3)cc(NCCCCCCN)nc12	0.347	0.526	1.22	0.519	0.962	0.421	0.678	0.659	0.958	0.583	0.479	0.595	0.916	0.375	0.625	0.142	0.353	0.338	0.457	0.0474
CN1CCN(C2CCN(C(=O)Nc3cc(Oc4ccc(NC(=O)C5(C(=O)Nc6ccc(F)cc6)CC5)c(F)c4)ccn3)CC2)CC1 [Golvatinib (E7050)]	1.08	0.978	1.09	1.67	0.874	0.698	0.887	0.674	0.871	0.626	0.529	1.02	1.25	0.837	0.734	0.983	0.683	0.258	1.5	-1.01
CCCCCCCCc1ccc(CCC(N)(CO)CO)cc1 [Fingolimod (FTY720) HCl]	0.824	0.754	0.476	0.534	0.749	0.506	0.57	0.65	0.244	0.841	0.718	0.595	1	0.241	0.797	0.658	0.485	1.09	1.02	0.757
C#Cc1cccc(Nc2ncnc3cc(OC)c(OCCCCCCC(=O)NO)cc23)c1	-0.111	0.0928	-1.64	-1.84	-0.258	0.168	0.293	0.463	-0.0228	0.69	0.294	-1.56	-1.38	0.249	0.49	-0.355	0.342	0.0669	0.57	-0.453
CCCNC(=O)Nc1ccc(Oc2ncnc3cc(OC)c(OC)cc23)cc1Cl	1.16	0.596	0.893	0.714	0.251	0.596	0.525	0.519	0.873	0.823	0.986	0.793	1.08	1.07	0.859	0.653	0.611	0.687	0.873	1.01
Nc1nccc(Oc2ccc(NC(=O)c3c[nH]cc(-c4ccc(F)cc4)c3=O)cc2F)c1Cl	1.09	0.804	-0.109	1.02	-0.204	0.547	-1.75	0.503	0.76	0.65	-0.827	0.784	1.17	0.437	1.14	0.883	-0.157	1.13	1.14	1.1
Cc1c(F)cc(C(=O)NC2CC2)cc1-c1ccc(C(=O)NCC(C)(C)C)cn1	0.691	0.589	0.246	0.258	0.133	0.39	0.48	0.322	0.75	0.288	-0.0686	0.456	0.602	-0.5	0.336	0.392	0.141	0.693	0.712	0.629
